The values below come from the supplement of paper PMC11880418.

Among the test systems are MKN45; PANC1; SUM159; T84.
Holding throughout (experiment): ALDHbr (CSC) cell proportion score relative to DMSO vehicle (ratio to DMSO); breast (SUM159) / gastric (MKN45) / pancreatic (PANC1) / colon cancer lines; ALDHbr cells have high ALDH activity and are rich in cancer stem cells (CSC); higher = more CSC (ALDHbr) cells remaining
What all share (settings): 10 µM; 72 h

Where a name gives a salt, the structure may show the parent alone. Some of the results follow. The data scatter; read single values as rough.
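Note: High-content imaging of ALDEFLUOR-stained cells with Hoechst-labelled nuclei in 384-well plates, triplicate wells, scored as Z-score against 0.1% DMSO vehicle, negative meaning fewer ALDHbr cells.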

As to `NC(=O)N1c2ccccc2C=Cc2ccccc21` [Carbamazepine], the ALDHbr in the assay on MKN45 was 0.934; in the assay on PANC1, 0.932; in the assay with SUM159, 0.927; in the assay with T84, 0.901.

`COc1cc(C(=O)NC2CCCNC2)cc(OC)c1OC` (stereo not given) [Troxipide]: the ALDHbr in the assay on MKN45 is 0.972; in the assay on PANC1, 0.975; in the assay with SUM159, 0.985; in the assay with T84 it was 1.21.

As to `CC(C(=O)O)c1ccc(C(=O)c2cccs2)cc1` (stereo not given) [Suprofen], the ALDHbr in the assay with MKN45 came out at 0.984; with PANC1, 0.914; in the assay with SUM159, 0.916; in the assay with T84 it was 0.902.

For the compound `O=C(Cn1ccnc1[N+](=O)[O-])NCCO` [Etanidazole], the ALDHbr in the assay on MKN45 was found to be 0.892; with PANC1, 0.949; in the assay with SUM159, 0.953; with T84, 1.03.

Regarding `CCN(CC)CCCC(C)Nc1ccnc2cc(Cl)ccc12` (stereo not given) [Chloroquine diphosphate], the ALDHbr was determined as 1.2 in the assay on MKN45, 0.897 in the assay with PANC1, 0.824 in the assay on SUM159 and 0.836 in the assay with T84.

Take `NC(Cc1cc(I)c(Oc2cc(I)c(O)c(I)c2)c(I)c1)C(=O)O` (stereo not given) [Thyroxine (L)]: the ALDHbr with MKN45 came out at 1.19; with PANC1, 1.17; in the assay with SUM159 it was 1.12; with T84, 0.812.

Take `C[C@H](CS)C(=O)N1CCC[C@H]1C(=O)O` [Captopril]: the ALDHbr came out at 0.927 in the assay with MKN45, 0.912 in the assay with PANC1, 0.964 with SUM159 and 0.932 in the assay with T84.

For the compound `Cc1cc(=O)n(-c2ccccc2)n1C` [Antipyrine], the ALDHbr in the assay with MKN45 was found to be 0.861; in the assay with PANC1, 0.851; with SUM159 it was 1.32; in the assay on T84, 0.715.

In the case of `COCCCOc1cc(C[C@@H](C[C@H](N)[C@@H](O)C[C@H](C(=O)NCC(C)(C)C(N)=O)C(C)C)C(C)C)ccc1OC` [Aliskiren hemifumarate], the ALDHbr in the assay with MKN45 came out at 0.911; in the assay with PANC1, 0.741; in the assay on SUM159, 0.945; in the assay on T84, 0.932.

For the compound `Fc1ccc([C@@H]2CCNC[C@H]2COc2ccc3c(c2)OCO3)cc1` [Paroxetine Hydrochloride], the ALDHbr turned out to be 1.45 in the assay on MKN45, 0.883 in the assay on PANC1, 0.809 in the assay on SUM159 and 0.848 with T84.

With `CS(=O)(=O)c1ccc([C@@H](O)[C@@H](CF)NC(=O)C(Cl)Cl)cc1` [Florfenicol], the ALDHbr with MKN45 was found to be 0.533; in the assay with PANC1 it was 0.73; in the assay on SUM159, 1.36; with T84 it was 0.816.

On to `Cc1cccc(Nc2ccccc2C(=O)O)c1C` [Mefenamic acid], for which the ALDHbr was 0.962 in the assay on MKN45, 1.04 with PANC1, 1.26 in the assay with SUM159 and 0.941 in the assay on T84.

For the compound `CCCC(=O)Nc1ncnc2c1ncn2[C@@H]1O[C@@H]2COP(=O)(O)O[C@H]2[C@H]1OC(=O)CCC` [Bucladesine sodium salt], the ALDHbr turned out to be 0.829 with MKN45, 1 with PANC1, 1.01 in the assay on SUM159 and 0.998 in the assay with T84.

For the compound `C#C[C@]1(O)CC[C@H]2[C@@H]3[C@H](C)CC4=C(CCC(=O)C4)[C@H]3CC[C@@]21C` [Tibolone], the ALDHbr is 0.799 in the assay with MKN45, 0.939 in the assay on PANC1, 1.04 with SUM159 and 0.965 with T84.

Take `COc1ccc(C(=O)NCc2ccc(OCCN(C)C)cc2)cc1OC` [Itopride]: the ALDHbr in the assay on MKN45 was 0.94; with PANC1 it was 0.878; in the assay with SUM159, 1.18; in the assay with T84, 0.956.

With `CC(=O)OCC(=O)[C@@]12OC3(CCCC3)O[C@@H]1C[C@H]1[C@@H]3CCC4=CC(=O)C=C[C@]4(C)[C@@]3(F)[C@@H](O)C[C@@]12C` [Amcinonide], the ALDHbr came to 1.16 with MKN45, 0.627 in the assay on PANC1, 0.839 with SUM159 and 0.89 in the assay with T84.

As for `Oc1c(Cl)cc(Cl)c2cccnc12` [Chloroxine], the ALDHbr with MKN45 stood at 0.581; in the assay with PANC1, 1.17; in the assay on SUM159, 0.243; in the assay on T84, 0.548.

Take `OCC(O)CN1CCN(c2ccccc2)CC1` (racemic) [Dropropizine (R,S)]: the ALDHbr stood at 1.01 with MKN45, 0.905 in the assay with PANC1, 1.03 in the assay with SUM159 and 0.859 with T84.

Take `COCCCOc1ccnc(C[S+]([O-])c2nc3ccccc3[nH]2)c1C` (stereo not given) [Rabeprazole Sodium salt]: the ALDHbr is 0.772 with MKN45, 0.997 in the assay on PANC1, 1.29 in the assay on SUM159 and 0.752 in the assay on T84.

For the compound `CC(C)(C)NC(=O)[C@H]1CC[C@H]2[C@@H]3CC[C@H]4NC(=O)C=C[C@]4(C)[C@H]3CC[C@]12C` [Finasteride], the ALDHbr with MKN45 amounted to 0.651; in the assay with PANC1, 0.737; with SUM159, 2.55; in the assay on T84, 0.864.

For `O=C1C(=O)c2ccccc2C(O)=C1C1CCC(c2ccc(Cl)cc2)CC1` (stereo not given) [Atovaquone], the ALDHbr in the assay with MKN45 came to 0.564; in the assay on PANC1, 1.1; with SUM159 it was 1.14; in the assay on T84, 0.934.

With `CCOC(=O)OC(C)OC(=O)[C@@H]1N2C(=O)[C@@H](NC(=O)[C@H](N)c3ccccc3)[C@H]2SC1(C)C` (stereo not given in full) [Bacampicillin hydrochloride], the ALDHbr came to 1.06 with MKN45, 0.876 in the assay on PANC1, 0.951 in the assay on SUM159 and 0.991 in the assay on T84.

Regarding `C=C1/C(=C\C=C2/CCC[C@]3(C)[C@@H]([C@H](C)CCCC(C)C)CC[C@@H]23)C[C@@H](O)C[C@@H]1O` [Alfacalcidol], the ALDHbr amounted to 1.36 in the assay on MKN45, 1.11 in the assay with PANC1, 1.85 in the assay with SUM159 and 0.711 with T84.

As for `CCN(CC)CCNC(=O)COc1ccc(OC)cc1` [Mefexamide hydrochloride], the ALDHbr is 0.942 in the assay on MKN45, 0.785 with PANC1, 0.948 with SUM159 and 0.957 in the assay on T84.

Regarding `CCN1C(=O)NC(c2ccccc2)C1=O` (stereo not given) [Ethotoin], the ALDHbr in the assay with MKN45 amounted to 0.977; in the assay with PANC1 it was 0.855; with SUM159 it was 1.17; in the assay with T84 it was 0.907.

With `CC1(C)NC(=O)N(c2ccc([N+](=O)[O-])c(C(F)(F)F)c2)C1=O` [Nilutamide], the ALDHbr was found to be 0.826 with MKN45, 0.854 in the assay with PANC1, 1.03 in the assay on SUM159 and 0.932 in the assay on T84.

Consider `Nc1nc2ccc(OC(F)(F)F)cc2s1` [Riluzole hydrochloride], for which the ALDHbr was found to be 1.22 with MKN45, 0.799 in the assay on PANC1, 1.21 with SUM159 and 0.811 in the assay on T84.

For `NS(=O)(=O)c1cc2c(cc1Cl)NCNS2(=O)=O` [Hydrochlorothiazide], the ALDHbr with MKN45 was 1.04; in the assay with PANC1, 0.984; in the assay on SUM159, 0.955; in the assay on T84, 0.681.

Take `Cc1cc(NS(=O)(=O)c2ccc(N)cc2)no1` [Sulfamethoxazole]: the ALDHbr in the assay with MKN45 turned out to be 1.06; with PANC1 it was 0.867; in the assay with SUM159, 0.811; in the assay on T84, 0.992.

For `CCCCOc1ccc(C(=O)CCN2CCCCC2)cc1` [Dyclonine hydrochloride], the ALDHbr in the assay on MKN45 turned out to be 0.726; in the assay on PANC1, 0.555; in the assay on SUM159 it was 0.421; in the assay with T84, 0.716.
